This note sets out measurements from the antibiotic and cytotoxicity screens of Wong et al. (2023).

The list shows a part of the results.

In the test the test system is HepG2. Nature of the test: cytotoxicity call (relative viability < 0.9). The settings on record: 10 µM.
With `COc1ccc(NC(=O)Nc2ccc3c(c2)C(=O)N([C@@H](C)CO)C[C@@H](C)[C@@H](CN(C)Cc2ccccc2)OCCCC[C@H](C)O3)cc1`, the cytotoxicity call was “inactive”.

As for `C[C@@H]1CCCCO[C@@H](CN(C)CC2CCCCC2)[C@H](C)CN([C@H](C)CO)C(=O)c2cc(NS(=O)(=O)c3ccc(Cl)cc3)ccc2O1`, the cytotoxicity call is “active”.

For `Cc1cc(C)c(C(=O)O)c(=O)[nH]1`, the cytotoxicity call was “inactive”.

On to `C[C@H](CO)N1C[C@H](C)[C@@H](CN(C)Cc2ccc(C(=O)Nc3ccccc3N)cc2)OCCCC[C@H](C)Oc2ccc(N(C)C)cc2C1=O`, for which the cytotoxicity call is “inactive”.

On to `CC(C)(C)OC(=O)CC[C@@]12N=C(c3ccc(OCCCO)cc3)O[C@@H]1c1ccccc1CN(Cc1ccccc1)C2=O`, for which the cytotoxicity call was “active”.

In the case of `C[C@H](CO)N1C[C@H](C)[C@H](CN(C)Cc2ccc3c(c2)OCO3)OCCCC[C@H](C)Oc2ccc(NC(=O)NC3CCCCC3)cc2C1=O`, the cytotoxicity call is “active”.

Consider `C[C@H]1CN([C@@H](C)CO)C(=O)c2cc(NC(=O)CCN3CCOCC3)ccc2O[C@@H]1CN(C)S(C)(=O)=O`, for which the cytotoxicity call was “inactive”.

Turning to `COc1ccc(NC(=O)Nc2ccc3c(c2)C(=O)N([C@@H](C)CO)C[C@@H](C)[C@H](CN(C)S(=O)(=O)c2ccc(OC)cc2)OCCCC[C@H](C)O3)cc1`, the cytotoxicity call is “inactive”.

Turning to `C[C@@H]1CCCCO[C@H](CN(C)C(=O)Cc2ccccc2)[C@H](C)CN([C@@H](C)CO)C(=O)c2cc(NC(=O)Cc3ccccc3)ccc2O1`, the cytotoxicity call is “inactive”.

As for `COc1ccc2c3c(n(c2c1)C)[C@H](CO)N(C[C@]13CN(Cc2ccncc2)C1)C(=O)CN1CCOCC1`, the cytotoxicity call is “inactive”.
